# Toxic doses and inconclusive results are not listed. Certain results were filed several times, with different values. The list is limited to them. The source may hold further records. Results that share an entry differ, and nothing given here explains why; they may come from other doses, times, organisms or constructs than stated.
# Tested on: L1210 leukemia ip in BDF1 mice, survival T/C
# Assay: NCI In Vivo Anticancer Drug Screen. Data for tumor model L1210 Leukemia (intraperitoneal) in B6D2F1 (BDF1) mice
# Conditions: endpoint: mean survival time, higher = longer survival
structure (smiles),measurement,setting,value
CN(C)CCNCc1ccccc1,T/C,"dose: 100.0 mg/kg/injection, schedule: Q01DX001 (ip), vehicle: saline","98 % of control, 99 % of control, 181 % of control"
CC1(C)CN1P(=S)(N1CC1(C)C)N1CC1(C)C (stereo unspecified),T/C,"dose: 50.0 mg/kg/injection, schedule: Q01DX009 (ip), vehicle: saline",110 % of control and 181 % of control
COc1ccccc1NC(=O)N(CCCl)N=O,T/C,"dose: 2.3 mg/kg/injection, schedule: Q01DX009 (ip), vehicle: carboxymethylcellulose (CMC)",117 % of control and 155 % of control
S=P(N1CC1)(N1CC1)N1CC1,T/C,"dose: 4.0 mg/kg/injection, schedule: Q04DX003 (ip), vehicle: saline",105 % of control and 153 % of control
same,T/C,"dose: 10.0 mg/kg/injection, schedule: Q01DX001 (ip), vehicle: saline",114 % of control and 150 % of control
same,T/C,"dose: 16.0 mg/kg/injection, schedule: Q01DX001 (ip), vehicle: saline","120 % of control, 164 % of control, 190 % of control"

# — PubChem BioAssay AID248 (DTP/NCI, 2004)
